Measured values published in article PMC4336329 (PLoS ONE, 2015).
The campaign covered roughly 310,000 compounds. About 2,200 (0.71%) showed an effect of 50% or more. Effects have a minus sign here. Some of the results follow.

Biological target: human ether-à-go-go-related gene (hERG) potassium channel (human, UniProt Q12809)
Test: primary screen, population patch clamp on CHO cells stably expressing hERG

Sequence of human ether-à-go-go-related gene (hERG) potassium channel (Q12809 whole entry, looked up): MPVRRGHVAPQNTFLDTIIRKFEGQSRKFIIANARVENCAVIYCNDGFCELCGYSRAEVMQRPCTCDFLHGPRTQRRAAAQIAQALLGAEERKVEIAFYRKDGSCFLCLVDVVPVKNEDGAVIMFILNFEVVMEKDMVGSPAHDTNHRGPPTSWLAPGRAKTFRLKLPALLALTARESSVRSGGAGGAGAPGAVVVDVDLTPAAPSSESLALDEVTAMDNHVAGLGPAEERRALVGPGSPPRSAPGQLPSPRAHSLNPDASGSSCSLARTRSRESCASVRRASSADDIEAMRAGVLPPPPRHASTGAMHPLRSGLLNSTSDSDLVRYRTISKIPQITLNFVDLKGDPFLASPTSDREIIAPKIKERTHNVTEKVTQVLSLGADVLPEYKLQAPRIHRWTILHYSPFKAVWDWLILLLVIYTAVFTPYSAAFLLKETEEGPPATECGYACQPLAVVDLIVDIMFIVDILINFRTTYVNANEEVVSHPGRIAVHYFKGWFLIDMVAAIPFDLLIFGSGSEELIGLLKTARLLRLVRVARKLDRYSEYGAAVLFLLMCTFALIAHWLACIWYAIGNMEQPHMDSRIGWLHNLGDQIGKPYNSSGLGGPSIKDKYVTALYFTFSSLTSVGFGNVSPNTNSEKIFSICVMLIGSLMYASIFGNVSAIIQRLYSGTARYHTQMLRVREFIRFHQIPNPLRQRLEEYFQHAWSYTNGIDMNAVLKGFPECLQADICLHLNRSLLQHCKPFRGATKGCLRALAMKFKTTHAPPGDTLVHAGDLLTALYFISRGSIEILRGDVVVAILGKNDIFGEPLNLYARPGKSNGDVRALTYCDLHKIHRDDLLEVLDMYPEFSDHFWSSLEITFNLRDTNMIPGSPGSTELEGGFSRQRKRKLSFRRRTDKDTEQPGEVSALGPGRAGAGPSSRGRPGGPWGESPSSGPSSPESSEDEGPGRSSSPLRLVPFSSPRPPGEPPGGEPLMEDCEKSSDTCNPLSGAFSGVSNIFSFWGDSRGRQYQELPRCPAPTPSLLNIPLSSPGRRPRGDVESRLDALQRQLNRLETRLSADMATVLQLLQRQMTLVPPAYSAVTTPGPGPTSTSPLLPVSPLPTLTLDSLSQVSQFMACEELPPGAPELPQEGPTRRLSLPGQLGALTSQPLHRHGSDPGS

Row | Compound | hERG current change (%, negative = inhibition) at 1uM
1 | CC(C)(C)c1ccc(C(=O)NNC(=O)CCC(=O)Nc2ccccc2)cc1 | 7.03%
2 | CCN(CC)CCNS(=O)(=O)c1ccc(/C=C/C(=O)O)cc1 | 17%
3 | CCOC(=O)Nc1cc(Br)c2c(c1)OCCO2 | -0.476%
4 | Fc1ccc(Nc2ncnc3sccc23)cc1 | 5.5%
5 | CCOc1ccc(-c2cc(C(=O)OC)[nH]n2)cc1 | 7.72%
6 | O=C(Nc1nc(-c2cc(F)ccc2F)cs1)c1cccc(N2C(=O)CCC2=O)c1 | 3.1%
7 | CCC(C)NC(=O)c1ccccc1NC(=O)C(C)N(c1ccccc1)S(C)(=O)=O (stereo not drawn) | 2.47%
8 | CCOC(=O)C1(Cc2ccc(Cl)cc2)CCN(C(=O)c2sc(C)nc2C)CC1 | -2.23%
9 | CCOc1ncnc2c1oc1nc(CC(C)C)c3c(c12)CC(C)(C)OC3 | 7.81%
10 | CCSc1nsc(NC(=O)Nc2cccc(C(C)=O)c2)n1 | 8.15%
11 | CCOC(=O)CC1(NC(=O)c2cc(COc3cncc(Cl)c3)on2)CCCCC1 | 10.1%
12 | O=C(C(=O)N1CCN(c2cccc(Cl)c2)CC1)c1c[nH]c2ccccc12 | -2.47%
13 | Cc1cc(N)ccc1N1CCCC1.Cl | 4.08%
14 | O=C(Cc1ccccc1)Nc1ncccn1 | 4.93%
15 | COc1cc(OC)cc(C(=O)Oc2c(CN3CCOCC3)cc(Cl)c3cccnc23)c1 | 13.3%
16 | Cc1nc2sccn2c(=O)c1S(=O)(=O)NCC(C)c1ccccc1 (stereo not drawn) | 6.31%
17 | COc1ccc(C(OC(=O)c2ccco2)C(=O)NCc2ccco2)cc1 (stereo not drawn) | 13%
18 | O=C(NC(=O)N1CCOCC1)c1ccccc1 | 10.1%
19 | COc1cccc(C2=NN(C(=O)c3ccc(C)o3)C(O)(C(F)(F)F)C2)c1 (stereo not drawn) | 11.5%
20 | Cc1cc(-c2ccc(Cl)cc2)n2nc(C)cc2n1 | 16.8%
21 | COc1cc(C(=O)Nc2ccc(C)cc2C(NCC(=O)NN)c2ccccc2)cc(OC)c1OC (stereo not drawn) | 15.3%
22 | CCCc1nnc(NC(=O)CCC(=O)NCc2ccc(Cl)cc2Cl)s1 | 19.3%
23 | CC(NC(=O)c1ccccc1[N+](=O)[O-])C1CC2CCC1C2 (stereo not drawn) | 18.5%

Row | Compound | hERG current change (%, negative = inhibition) at 1uM
24 | CCOc1cc(-c2n[nH]c(=S)n2Cc2ccccc2)ccc1OC(F)F | 14.1%
25 | CN(Cc1ccc(F)cc1)C(=O)CCc1nnc(-c2ccccc2)o1 | 2.97%
26 | CCCc1cc(C(=O)N2CCCC(N3CCN(c4ccccc4C)CC3)C2)n(C)n1 (stereo not drawn) | 3.48%
27 | CCSc1nnc(NC(=O)c2cc(OC)c(OC)c(OC)c2)s1 | 4.55%
28 | Cc1nn(-c2ccc(C(=O)O)cc2)c(=O)c2ccccc12 | 11%
29 | COc1cc(CN(C2CCCCC2C)S(=O)(=O)c2ccc(S(=O)(=O)NC3CC3)cc2)cc(OC)c1OC (stereo not drawn) | -2.27%
30 | Cc1cc(=O)[nH]c(N/N=C/c2ccc(-c3ccc([N+](=O)[O-])cc3)o2)n1 | 13.5%
31 | O=c1[nH]c(SCc2ccccc2)nc2ccsc12 | 6.51%
32 | Cc1cc(C)cc(NC(=S)NCC2CCCO2)c1 (stereo not drawn) | 7.64%
33 | O=C(NNS(=O)(=O)c1ccccc1)c1ccccc1-n1cccc1 | 6.46%
34 | CCN(/N=C/c1cccs1)c1cc(=O)n(C)c(=O)[nH]1 | 9.48%
35 | Cc1ccc(-n2c(C)cc(C(=O)CN3CCOCC3)c2C)cc1 | 4.07%
36 | CN(C)/C=C1\SC(=S)N(N2C(=O)C3C4C=CC(C4)C3C2=O)C1=O (stereo not drawn) | 4.34%
37 | CCOc1cc(N2CCOCC2)c(OCC)cc1NC(=O)COC(=O)CCOc1ccc(C(C)(C)C)cc1 | 10.5%
38 | OCC[C@H]1C[C@@H](O)[C@H](O)[C@]2(Cc3ccccc3CCO2)O1 | 5.45%
39 | CN(c1ccc(OCC(=O)OCC(=O)Nc2ccccc2)cc1)S(=O)(=O)c1cccs1 | 4.04%
40 | Cc1ccc(S(=O)(=O)NC2=NCCCCC2)cc1 | 10%
41 | COc1ccc2c(c1)[nH]c1c(=O)n(Cc3ccncc3)cnc12 | -9.33%
42 | O=C(CCn1cnnn1)Nc1ccccc1F | 5.19%
43 | Cc1nonc1OCCN1CCN(c2ccccc2[N+](=O)[O-])CC1.Cl | -2.31%
44 | CCOc1ccccc1NC(=O)C(OC(=O)c1ccc(O)cc1)c1ccccc1 (stereo not drawn) | -1.45%
45 | O=C(COc1ccccc1)Nc1ccc(OC(F)(F)C(F)F)c(NC(=O)COc2ccccc2)c1 | 5.54%
